# In the supplement of paper PMC6531468:
# Some of the results follow. Values come from read counts of a selection and are noisy. Each score is taken over the longer molecules that contain the sequence shown.
# Test system: IMP3 KH1-2
# Assay: 6-mer SELEX enrichment z-score vs GST control; IMP3 is the RNA-binding protein IGF2BP3; higher = more enriched by binding
# Conditions: construct: KH1-2 (164-376); SELEX round: R4
# Method: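 SELEX-seq with GST-tagged IMP3 KH1-2 (Pro164-Phe376) and an N40 RNA pool, round 4 (stringent 300/600 mM KCl washes). 6-mer z-score of sequence-tag enrichment normalised to the corresponding GST SELEX round; RNA k-mers written as DNA (T for U).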
# Chain of IMP3 KH1-2 (chain, as listed by the source): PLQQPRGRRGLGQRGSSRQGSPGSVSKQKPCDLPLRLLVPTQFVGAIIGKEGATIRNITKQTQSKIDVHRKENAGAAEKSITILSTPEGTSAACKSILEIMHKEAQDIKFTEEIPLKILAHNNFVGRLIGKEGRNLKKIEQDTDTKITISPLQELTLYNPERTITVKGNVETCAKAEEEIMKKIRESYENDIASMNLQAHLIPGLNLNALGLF
row,Sequence,6-mer SELEX enrichment z-score
1,TAGTAG,0.029
2,TGCGAG,-0.968
3,TCGTGG,-0.259
4,CAAGCC,-0.98
5,TGTCGA,-0.715
6,TCGGAC,-0.265
7,GCCTGG,-0.393
8,AGATGG,0.578
9,CGCGTA,-2.4
10,CACTCT,0.171
11,ACATAG,1.12
12,ATGCGT,-1.25
13,CGGCTC,0.174
14,AACCTT,-0.562
15,CAAGGT,-0.429
16,GCCAAA,-1.15
17,CCCTCG,-0.996
18,TGTAAA,0.011
19,CGATCC,-0.939
20,CCCCAA,-1.27

row,Sequence,6-mer SELEX enrichment z-score
1,TGTGCA,0.582
2,GACTGA,-0.39
3,CGCGAA,-0.728
4,GAGCAA,-1.25
5,CAGCTC,-0.036
6,TCTCTA,0.204
7,ATATCA,2.07
8,GTCGGG,0.497
9,GCCGAA,-1.13
10,ACGCGG,0.045
11,TCCAGA,-0.235
12,GGTTTC,-0.195
13,CATTAT,1.61
14,AATTTC,1.16
15,TCGAAA,-1.49
16,TACCCC,-0.447
17,GTGATC,-0.197
18,TATTAT,1.15
19,GTACGG,0.261
20,CCTTTC,0.447
